Source: PubChem BioAssay (NCI)
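Step 1: Grow cells in 96-well plates. Step 2: Expose to compound for 48 hours at 5 concentrations. Step 3: Interpolate endpoints linearly; if unreached, use highest concentration. TGI denotes the concentration required for complete inhibition of growth.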 Some entries of the source have several records that differ or are many. This is not the full list of results. There may be further records. For some assays here: The tests behind the records often covered other concentration ranges, not given here; some values may only mark the edge of a range. For some assays here: Values given together repeat one measurement in other runs, samples, wells, individuals or studies. Records carry a tag for their origin. Letters hold for one entry only.

Test system: MDA-MB-468 breast
Assay: NCI tumour cell line growth inhibition, 48 h

Compound | TGI
COc1ccc(Cn2cc(Cn3c(=O)c(-c4nc5ccccc5[nH]4)cc4ccccc43)nn2)c(OC)c1OC | 491 nM and > 100 µM
O=[N+]([O-])c1ccc(O)c2ncccc12 | > 100 µM [sample A, 1 test] and 5.91 µM [sample B, 1 test]
